# In PubChem BioAssay AID485294 (National Center for Advancing Translational Sciences (NCATS), 2010):
# Out of some 370,000 compounds screened, about 150 (0.041%) were called active. Inconclusive results, whose numbers are uncertain, are shown with a selection of clear calls. Calls follow the shape of the dose curve; as a rule, active = well fitted inhibition curve with a large enough effect; inconclusive = small, poorly fitted or top-dose-only effect; inactive = flat fitted curve, though single readings scatter. No potency is given beside an inconclusive call; the fits are too rough.
# Target: Beta-lactamase (Escherichia coli (strain K12)) (UniProt P00811)
# Assay: qHTS Inhibitors of AmpC Beta-Lactamase (assay with detergent); also: nearly all actives have a fitted effect of over 25% in size
# Settings: AmpC hydrolysis of nitrocefin, absorbance 480 nm, 0.01% Triton; series mostly up to 114 µM
# In short: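 20 mM phosphate pH 7.0 + 0.01% (detergent screen) or 0.0001% Triton X-100; 5.3 nM AmpC reagent; cpd preinc 15 min RT; nitrocefin (800 uM stock) to start; A480 q20 s × 4 min; Activity was normalised to no-enzyme and no-compound control wells.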
# Potency is read from the fitted curve at half-maximal effect; tags tell the direction and shape of the fitted curve.
# UniProt P00811, sequence (P00811 whole entry, looked up): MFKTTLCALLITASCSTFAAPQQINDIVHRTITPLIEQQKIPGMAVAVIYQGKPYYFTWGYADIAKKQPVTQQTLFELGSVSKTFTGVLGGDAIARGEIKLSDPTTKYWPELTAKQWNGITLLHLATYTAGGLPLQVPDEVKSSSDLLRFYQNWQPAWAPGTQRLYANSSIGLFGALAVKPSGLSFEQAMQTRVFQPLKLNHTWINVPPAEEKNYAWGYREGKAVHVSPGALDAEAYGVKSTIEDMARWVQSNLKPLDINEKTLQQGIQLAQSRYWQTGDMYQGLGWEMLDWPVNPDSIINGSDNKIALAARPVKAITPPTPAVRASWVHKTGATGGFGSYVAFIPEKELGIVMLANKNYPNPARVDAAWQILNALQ
row,SMILES,Potency
1,Cc1[nH]nc2c1C(c1ccc(OC(=O)c3ccco3)cc1)C(C#N)=C(N)O2 (stereo not drawn),"inconclusive [inhibitor, partial curve]"
2,CCCc1ccc(S(=O)(=O)N/N=C(/C)c2ccc3c(c2)OCO3)cc1,"inconclusive [inhibitor, full curve, poor fit]"
3,O=C(c1cc(-c2ccccc2)nn1-c1ccccc1)N1CCN(S(=O)(=O)c2c(F)cccc2F)CC1,"inconclusive [inhibitor, partial curve, poor fit]"
4,CCC1CCCCN1C(=O)CSc1nc2c(c(=O)n1C)SC(C)C2 (stereo not drawn),"inconclusive [inhibitor, full curve, poor fit]"
5,CN(C)C(CNC(=O)CCNC(=O)c1ccccc1Cl)c1ccco1 (stereo not drawn),"inconclusive [inhibitor, partial curve, poor fit]"
6,CC(NC(=O)CCl)c1ccc(Cl)c(Cl)c1 (stereo not drawn),"inconclusive [inhibitor, single point]"
7,COc1ccc(CNC(=O)CN2C(=O)C3CCCN3c3ncc(Cl)cc32)cc1 (stereo not drawn),"inconclusive [inhibitor, single point]"
8,Cc1cc(NC(=O)COC(=O)C2COc3ccccc3O2)no1 (stereo not drawn),"inconclusive [inhibitor, full curve, poor fit]"
9,COCCN(Cc1ccccc1)C(=S)Nc1ccc(OC(F)F)cc1,inactive
10,c1ccc2c(c1)oc1c(Nc3ccc(CN4CCOCC4)cc3)ncnc12,inactive
11,Cc1ccc(S(=O)(=O)NCCCCCC(N)=O)cc1,"inconclusive [inhibitor, single point]"
12,CCOc1ccccc1NC(=O)C(OC(=O)c1ccccc1)c1ccccc1 (stereo not drawn),inactive
13,O=S(=O)([N-]c1nc2ccccc2nc1-[n+]1ccc(Cc2ccccc2)cc1)c1ccc(Br)s1,"inconclusive [inhibitor, single point]"
14,C/C(=N\NC(=O)c1nnn(-c2nonc2N)c1CN1CCC(C)CC1)c1cccc(Br)c1,inactive
15,CCC(C(=O)Nc1nnc(-c2ccco2)s1)c1ccccc1 (stereo not drawn),"inconclusive [inhibitor, full curve, poor fit]"
16,Cc1cc(C)c(S(=O)(=O)c2ccccc2)c(OC(=O)c2c(F)cccc2F)n1,"inconclusive [inhibitor, full curve, poor fit]"
17,CCOC(=O)C1CCCN(c2nc3c(S(=O)(=O)c4ccc(CC)cc4)nnn3c3ccsc23)C1 (stereo not drawn),inactive
18,Cc1cccc(NC(=O)c2ccc(NCCc3ccccc3)c([N+](=O)[O-])c2)c1,"inconclusive [inhibitor, single point]"
